The text below walks through data of paper PMC6212790.

Some of the results follow. At the low end of the ranking the order means little.

This test concerns the target T1, GST-Rok-C97-191 (UniProt O34857).
T1 sequence: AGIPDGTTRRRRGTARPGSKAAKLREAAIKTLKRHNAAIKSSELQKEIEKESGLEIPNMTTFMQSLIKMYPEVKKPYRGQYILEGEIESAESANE
In words: protein binding microarray.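 Further: rank score from −0.5 (least bound) to 0.5 (best bound).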 The note with it: Rok is a gene silencer of Bacillus subtilis; high values mean tight binding; most listed sequences are background and not binding sites; double strand, one strand shown.
Regarding AATTTTGT, the binding signal amounted to 0.0867 E-score.
Next, CCCTTGGA: -0.298 E-score; GTACCTAA: 0.155 E-score.
AACTACGT showed a binding signal of 0.338 E-score.
For CGGACGGC, the binding signal is -0.375 E-score.
Regarding ACCTCTCT, the binding signal was -0.113 E-score.
Next, AGTTATGA: 0.214 E-score; CCTTCCCG: -0.31 E-score.
As for ATTCAAGG, the figure is -0.00382 E-score; as for CAGAGATG, -0.293 E-score.
As for GTTTATCA, the figure is 0.0853 E-score; as for GCCGCACA, -0.321 E-score.
Sequence ATTTTCAC registered a binding signal of 0.0493 E-score.
CCAAATGA: the binding signal is -0.0639 E-score.
As for AAGGCCGA, the figure is -0.247 E-score; as for CTAACTTC, 0.114 E-score; as for ACTATGGC, -0.0248 E-score.
Next, CAACTCTC: -0.00144 E-score; CACCTGCC: -0.392 E-score; CTCTCCCC: -0.275 E-score.
As for CCCCGTGC, the figure is -0.205 E-score; as for CTGGGTCC, -0.309 E-score; as for GACTACCA, 0.141 E-score.
As for CCGTAGAG, the binding signal was -0.0884 E-score.
Take TCCTCTAA: the binding signal was -0.0186 E-score.
As for AATCTCAT, the figure is 0.155 E-score; as for CACGCCTG, -0.0358 E-score; as for CAGGATAA, 0.076 E-score.
On to CGTAAACG, for which the binding signal was -0.0686 E-score.
Next, TCCCGGGA: -0.311 E-score; ACTTTCTG: 0.144 E-score.
Regarding ATAGGTCA, the binding signal turned out to be 0.195 E-score.
As for CCGGAGCC, the figure is -0.222 E-score; as for CTTGCAGA, -0.115 E-score; as for CCCCTGGC, -0.381 E-score.
Next, GAAATTAC: 0.359 E-score; AAACTTCA: 0.0505 E-score; AGGTCTAT: 0.15 E-score.
Take ACCTCGTA: the binding signal was determined as 0.113 E-score.
In the case of CAGACTAG, the binding signal was -0.0434 E-score.
As for ATAGCATA, the figure is 0.263 E-score; as for GAGAAAGA, 0.0766 E-score; as for ATGAGTCG, 0.0198 E-score.
GCCACTTA: the binding signal is -0.117 E-score.
The sequence AGTAGGTC returned a binding signal of 0.159 E-score.
Next, CGACAGAG: -0.117 E-score; TCGGCTCA: -0.16 E-score.
As for CGATGTGC, the binding signal was -0.223 E-score.
As for GGGCAATA, the binding signal was -0.0561 E-score.
Consider CGGGCAAA, for which the binding signal is -0.0468 E-score.
Next, ATACAAAT: 0.337 E-score.
Regarding CCGCAGCC, the binding signal is -0.343 E-score.
As for ATTGAACA, the binding signal is -0.0938 E-score.
In turn, AACTCGGT returned a binding signal of 0.225 E-score.
As to CCCAGTGA, the binding signal was -0.0946 E-score.
As for AAGGTGAG, the figure is -0.13 E-score.
Regarding AACTTATT, the binding signal came to 0.159 E-score.
Next, AATTCCGA: 0.166 E-score; CAGGCTAG: -0.174 E-score.
Regarding GCTTGGGA, the binding signal is -0.215 E-score.
Consider AAGGTCGC, for which the binding signal was -0.255 E-score.
As for GGCAACCA, the figure is -0.202 E-score; as for GGAAGTTA, 0.154 E-score.
As to AGTAAATG, the binding signal came to 0.205 E-score.
For the sequence CGTCGGTA, the binding signal is -0.0251 E-score.
AAGATACG: the binding signal came out at 0.137 E-score.
Take AAAACTTT: the binding signal is -0.0026 E-score.
For the sequence GAAGGGGC, the binding signal was -0.24 E-score.
For the sequence TAGAGCAA, the binding signal was -0.0616 E-score.
For AGAATTTC, the binding signal was found to be 0.255 E-score.
GTTTATGA: the binding signal worked out at 0.128 E-score.
ATCGGCTC: the binding signal was -0.204 E-score.
As for AGATCCAA, the figure is 0.00481 E-score.
Turning to CAGTTCCA, the binding signal came out at 0.0296 E-score.
CAAATCCC: the binding signal was -0.191 E-score.
As for CCACTTGC, the figure is -0.185 E-score.
For the sequence TAGAGATA, the binding signal came out at 0.114 E-score.
As for ACCAAGAT, the binding signal came to 0.202 E-score.
For GGCATTCA, the binding signal was -0.0675 E-score.
Next, CCTGCGAG: -0.157 E-score; AAAATTAT: 0.239 E-score.
As for CTAATTCA, the figure is 0.168 E-score; as for GGTTGTGA, -0.0619 E-score.
As for AATAAAGG, the figure is -0.0679 E-score; as for AAGATAAA, 0.314 E-score; as for AGGCTCCA, -0.266 E-score.
As for GAGGCCCC, the binding signal is -0.362 E-score.
Next, CTATTAAC: 0.201 E-score; CACCAGGA: -0.0629 E-score; ACCTGGCG: -0.137 E-score.
As for AACCAGAC, the figure is -0.227 E-score.
In the case of TGCAGACA, the binding signal is -0.0615 E-score.
Turning to TCCTTAAA, the binding signal was -0.108 E-score.
Consider CCCCCGTC, for which the binding signal was -0.191 E-score.
Next, AACCATAA: 0.0116 E-score; CTAAATAG: 0.194 E-score; CCGTAGCC: -0.136 E-score.
The sequence ATCTAGCG came in with a binding signal of 0.202 E-score.
Next, AGCGTAGA: 0.298 E-score; AGTACGAA: 0.204 E-score; ATGTGGGA: 0.0284 E-score.
In the case of CTCGGTTA, the binding signal was -0.0509 E-score.
Next, CCTACGGA: 0.00341 E-score.
As for GTGCGATA, the figure is -0.0151 E-score; as for CAACAGTC, -0.174 E-score; as for CCTAAGTC, -0.0873 E-score.
Next, AAGTTCCC: -0.0517 E-score; GCTATAAA: 0.217 E-score.
As to CATGTCCA, the binding signal is 0.132 E-score.
